According to the supplement of paper PMC10338343:
± gives the standard deviation. The list shows a part of the results, in another mix than the full data.

tested on: MIWI (PIWIL1) piRISC loaded with L1MC piRNA (30 nt); experiment: pre-steady-state target cleavage rate (min^-1); MIWI and MILI are mouse PIWI proteins and EfPiwi is from a freshwater sponge; tags in brackets are library labels; higher = faster piRNA-guided slicing of the target; conditions: guide: L1MC piRNA 5'p-UAACUAAAUACUAUGCAAGCUGUAGGUCCU; auxiliary factor: 500 nM mouse GTSF1
Outline: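 The pre-steady-state cleavage rate came from a burst-and-steady-state fit to pooled data from three Cleave-'n-Seq trials, in which uncleaved targets were sequenced and normalised to depth and to weakly complementary targets. Each reaction held 0.1 nM transcribed, DNA-blocked target RNA library and 1 nM active affinity-purified piRISC carrying one synthetic guide, with or without 500 nM GTSF1 partner protein, in HEPES–potassium acetate buffer at 33 °C for 0–8 or 0–960 min. k3 was capped at 0.0001 min^-1.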

Q: UCCUGGAUGUCCUCUGCAUAGUAUUUAGUUA was tested. Which “pre-steady-state target cleavage rate” value did it give?
A: 0.0075 ± 0.002

Q: How did the “pre-steady-state target cleavage rate” value turn out when UGGACCUACACGAUGCAUAGUAUUUACAAA was run?
A: 0.0726 ± 0.012

Q: With UCCUGGAACAGCAUGCAUAGUAUUUUCAAA as the sequence, how does the “pre-steady-state target cleavage rate” value read?
A: 0.212 ± 0.036

Q: Which “pre-steady-state target cleavage rate” value does the source give for UCCUGGAUGAGCUUGCAUAGUAUAUACAAA here?
A: 0.00918 ± 0.0054

Q: UCCACCUACAGCUUGCAUAGAUAUUUAGUUA was tested. Which “pre-steady-state target cleavage rate” value did it give?
A: 0.0183 ± 0.0085

Q: With UCCUGCUACAGCUUGCUAAGUAUUUAGUAA as the sequence, how does the “pre-steady-state target cleavage rate” value read?
A: 0.107 ± 0.022

Q: With UCCUCCUUGUGCUUGCAUAGUAUUUUCAAA as the sequence, how does the “pre-steady-state target cleavage rate” value read?
A: 0.0489 ± 0.012

Q: Which “pre-steady-state target cleavage rate” value does the source give for UGGACCUAGUCCUUGCAUAGUAUUUUCAAA here?
A: 0.00906 ± 0.0037

Q: With UGGACCUACAGCUUCGUUAGUAUUUAGAAA as the sequence, how does the “pre-steady-state target cleavage rate” value read?
A: 0.00329 ± 0.0029

Q: Which “pre-steady-state target cleavage rate” value does the source give for UCCUGGAUGAGCUUCCUUAGUAUUUAGUUA here?
A: 0.0165 ± 0.0046

Q: Which “pre-steady-state target cleavage rate” value does the source give for UCCACCUACAGCUUGGUAAGUAUUUAGUAA here?
A: 0.0391 ± 0.013

Q: With UCCUGCUAGAGCUUCCAUAGUAUUUAGUUA as the sequence, how does the “pre-steady-state target cleavage rate” value read?
A: 0.333 ± 0.079

Q: For UCGACCUACAGCUUGCAUAGUAAAAAGAAA, which “pre-steady-state target cleavage rate” value is on record?
A: 0.252 ± 0.055

Q: Which “pre-steady-state target cleavage rate” value does the source give for UGGUGCUACAGCUUGCAUAGUAUUUACAAA here?
A: 0.144 ± 0.028

Q: For UCCUGGUACACGAUGCAUAGUAUUUAGUAA, which “pre-steady-state target cleavage rate” value is on record?
A: 0.0477 ± 0.015

Q: For UCCACCUAGUCCUUGCAUAGUAUUUAGAAA, which “pre-steady-state target cleavage rate” value is on record?
A: 0.109 ± 0.027

Q: Which “pre-steady-state target cleavage rate” value does the source give for UCCUCCUACUGCUUGCAUAGUAUUUUCAAA here?
A: 0.14 ± 0.024

Q: How did the “pre-steady-state target cleavage rate” value turn out when UCCUGGAUGUCGAACGUAUGUUUUUUGUUA was run?
A: < 0.0001

Q: For UCCUCCUACAGCUUGCAUAGAAUUUACAAA, which “pre-steady-state target cleavage rate” value is on record?
A: 0.295 ± 0.045

Q: Which “pre-steady-state target cleavage rate” value does the source give for UCCUGGAACAGCUUCCAUAGUAUUAAGUUA here?
A: 0.0095 ± 0.0047

Q: How did the “pre-steady-state target cleavage rate” value turn out when AGGACCUACAGCUUCCAUAGUAUUUUGUUA was run?
A: 0.181 ± 0.056

Q: With UCCUGGAACAGCUUGCAUAGUAAAAAGAAA as the sequence, how does the “pre-steady-state target cleavage rate” value read?
A: 0.014 ± 0.0079

Q: Which “pre-steady-state target cleavage rate” value does the source give for AGGACCUACAGCUUGCAUAGUAAAAAGUAA here?
A: 0.39 ± 0.08

Q: Which “pre-steady-state target cleavage rate” value does the source give for UCCUCCUACAGCUUGCAUAGCUAUUUAGUUA here?
A: 0.0221 ± 0.01

Q: With UCCUCCUACAGCUUGCAUUGUAUUUUCAAA as the sequence, how does the “pre-steady-state target cleavage rate” value read?
A: 0.131 ± 0.028

Q: With UCCUGGAUGUCGAAGCAUAGUAUUUCAGUUA as the sequence, how does the “pre-steady-state target cleavage rate” value read?
A: 0.00491 ± 0.0043

Q: UCCUGGUACAGGUUGCAUAGUAUUUAGAAA was tested. Which “pre-steady-state target cleavage rate” value did it give?
A: 0.141 ± 0.025

Q: With UCCUGGAACAGCAUGCAUAGUAUUUACAAA as the sequence, how does the “pre-steady-state target cleavage rate” value read?
A: 0.327 ± 0.041

Q: Which “pre-steady-state target cleavage rate” value does the source give for UCGACCUACAGCUUGCAUAGUUAUUUCAAA here?
A: 0.269 ± 0.08

Q: With UCCUGCUACAGCUUGGUUAGUAUUUAGAAA as the sequence, how does the “pre-steady-state target cleavage rate” value read?
A: 0.0586 ± 0.014

Q: With UCCUGGAACAGCUUGCAUUCUAUUUAGAAA as the sequence, how does the “pre-steady-state target cleavage rate” value read?
A: 0.00675 ± 0.0056

Q: How did the “pre-steady-state target cleavage rate” value turn out when UCCUGGUACAGCUUGCAUACUAUUUAGAAA was run?
A: 0.0759 ± 0.024

Q: Which “pre-steady-state target cleavage rate” value does the source give for AGGACCUACAGCUUGCAUAGUAUUAUGUAA here?
A: 0.301 ± 0.075

Q: Which “pre-steady-state target cleavage rate” value does the source give for UCCUGGUACAGCUUGGUAAGUAUUUAGUAA here?
A: 0.0102 ± 0.0047

Q: Which “pre-steady-state target cleavage rate” value does the source give for UCCUGGAUGACGUUGCAUAGUAUUUAGUAA here?
A: 0.0132 ± 0.0049

Q: AGGACCUACAGCUUGCAUAGUUUUAGUUA was tested. Which “pre-steady-state target cleavage rate” value did it give?
A: 0.25 ± 0.086

Q: UCCACCUACAGCUUGCAUAGAUAUUAGUUA was tested. Which “pre-steady-state target cleavage rate” value did it give?
A: 0.0481 ± 0.015

Q: For UCCUGGUACAGCUUGCAUAGUAUUAACAAA, which “pre-steady-state target cleavage rate” value is on record?
A: 0.137 ± 0.023

Q: UCCUGGAUGUCCUAGCAUAGUAUUUAGUAA was tested. Which “pre-steady-state target cleavage rate” value did it give?
A: 0.0129 ± 0.0075

Q: UCCUGGAACUCGUUGCAUAGUAUUUUCAAA was tested. Which “pre-steady-state target cleavage rate” value did it give?
A: 0.00974 ± 0.0044
